From the supplement of paper PMC9174493
The list shows a part of the results. Single values of this set are uncertain. Values with irradiation are relative to irradiated vehicle.

How the values were obtained:
[1] = tested on: A549-Dual; experiment: NF-kB reporter (SEAP) activity, viability-corrected, relative to vehicle (fold change vs vehicle); higher = more activation of STING-IRF / NF-kB immune response reporter; conditions: 10 µM
[2] = tested on: A549-Dual; experiment: ISRE reporter (Lucia luciferase) activity, viability-corrected, relative to vehicle (fold change vs vehicle); higher = more activation of STING-IRF / NF-kB immune response reporter; conditions: 10 µM
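Wherever NF-kB reporter (SEAP) activity, viability-corrected, relative to vehicle is given: viability correction based on the alamar blue assay, with concentrations leaving 10% survival or less dropped.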

SMILES | NF-kB reporter ([1]; irradiation: 8 Gy/4 fr) | NF-kB reporter ([1]; irradiation: none) | ISRE reporter ([2]; irradiation: 8 Gy/4 fr) | ISRE reporter ([2]; irradiation: none)
Cc1cc(C)cc(OCC2CNC(=O)O2)c1 (stereo not drawn) [Metaxalone] | 0.623 | 1.07 | 0.656 | 0.589
CCOC(=O)C(N)Cc1ccc(-c2cc(OC(c3ccc(Cl)cc3-n3ccc(C)n3)C(F)(F)F)nc(N)n2)cc1.O=C(O)CNC(=O)c1ccccc1 (stereo not drawn) [Telotristat Etiprate (LX 1606 Hippurate)] | 0.732 | 1.24 | 0.683 | 0.877
CN(C)N(C)C(=O)C1(Cc2ccccc2)CCCN(C(=O)C(Cc2c[nH]c3ccccc23)NC(=O)C(C)(C)N)C1 (stereo not drawn) [Anamorelin] | 0.977 | 0.772 | 1.28 | 1.13
COc1cc(N)c(Cl)cc1C(=O)NC1CC[NH+](Cc2ccccc2)CC1.O=C(O)CC(O)C(=O)[O-] [Clebopride (malate)] | 0.813 | 1.18 | 0.71 | 0.93
CC(=O)OC/C=C(/C)CCC=C(C)C [Neryl acetate] | 0.699 | 0.823 | 0.704 | 0.634
C#CC1(O)CCC2C3CCc4cc(O)ccc4C3CCC21C (stereo not drawn) [Ethinyl Estradiol] | 1.2 | 1.27 | 1.21 | 2.15
COc1ccc2c3c1OC1CC(O)C=CC31CCN(C)C2 (stereo not drawn) [Galanthamine] | 0.89 | 1.11 | 1.07 | 1.09
COc1cc2c(cc1OC)C(=O)C(CC1CCN(Cc3ccccc3)CC1)C2 (stereo not drawn) [Donepezil] | 0.813 | 0.698 | 1.36 | 0.91
NC(=O)c1ncn(C2OC(CO)C(O)C2O)n1 (stereo not drawn) [Ribavirin] | 0.746 | 1.09 | 0.713 | 0.89
NC12CC3CC(CC(C3)C1)C2 [Amantadine] | 0.746 | 1.16 | 0.725 | 0.931
CCOC(=O)CCC(=O)OC1C(OC2C(C)C(OC3CC(C)(OC)C(O)C(C)O3)C(C)C(=O)OC(CC)C(C)(O)C(O)C(C)C(=O)C(C)CC2(C)O)OC(C)CC1N(C)C (stereo not drawn) [Erythromycin Ethylsuccinate] | 0.97 | 1.12 | 0.858 | 0.869
CCCCC/C=C\C/C=C\CCCCCCCC(=O)OC [Methyl linoleate] | 0.83 | 0.48 | 0.778 | 0.387
COc1cc(O)c(C(=O)c2ccccc2)cc1S(=O)(=O)O [Sulisobenzone] | 1.02 | 0.693 | 0.869 | 0.438
O=C(O)c1cc(O)c2c(c1)C(C1c3cc(C(=O)O)cc(O)c3C(=O)c3c(OC4OC(CO)C(O)C(O)C4O)cccc31)c1cccc(OC3OC(CO)C(O)C(O)C3O)c1C2=O (stereo not drawn) [Sennoside B] | 0.837 | 0.666 | 0.712 | 0.473
CCc1cc(C(N)=S)ccn1 [Ethionamide] | 0.646 | 0.922 | 0.531 | 0.611
Cc1ccccc1N1C(=O)c2cc(S(N)(=O)=O)c(Cl)cc2NC1C (stereo not drawn) [Metolazone] | 0.864 | 0.886 | 0.86 | 0.718
CC#CC1(O)CCC2C3CCC4=CC(=O)CCC4=C3C(c3ccc(N(C)C)cc3)CC21C (stereo not drawn) [Mifepristone] | 0.33 | 1.09 | 0.248 | 1.05
O=P(O)(O)OC(Cn1cncn1)(Cn1cncn1)c1ccc(F)cc1F [Fosfluconazole] | 0.674 | 0.792 | 0.716 | 0.754
CC1COc2c(N3CCN(C)CC3)c(F)cc3c(=O)c(C(=O)O)cn1c23 (stereo not drawn) [Levofloxacin] | 0.683 | 0.833 | 0.685 | 0.628
O=C(NCC1CN(c2ccc(N3CCOCC3=O)cc2)C(=O)O1)c1ccc(Cl)s1 (stereo not drawn) [Rivaroxaban] | 0.812 | 0.833 | 0.696 | 0.795
NC(=O)CCC(N)C(=O)O (racemic) [DL-Glutamine] | 1.14 | 0.837 | 1.07 | 0.73
Cc1c(C)c2c(c(C)c1O)CCC(C)(CCCC(C)CCCC(C)CCCC(C)C)O2 (racemic) [(±)-α-Tocopherol] | 0.798 | 0.459 | 0.727 | 0.42
COc1c(-c2ccc3cc(NS(C)(=O)=O)ccc3c2)cc(-n2ccc(=O)[nH]c2=O)cc1C(C)(C)C [Dasabuvir(ABT-333)] | 1.16 | 1.49 | 0.984 | 2.46
CCCNC(=O)NS(=O)(=O)c1ccc(Cl)cc1 [Chlorpropamide] | 0.805 | 0.792 | 0.721 | 0.674
CC(C)OC(=O)CCC/C=C\CC1C(O)CC(O)C1/C=C/C(F)(F)COc1ccccc1 (stereo not drawn) [Tafluprost] | 0.993 | 0.711 | 0.86 | 0.468
Cc1c[nH]c(=O)[nH]c1=O [Thymine] | 0.737 | 0.789 | 0.675 | 0.633
COc1cc2nc(N3CCN(C(=O)C4COc5ccccc5O4)CC3)nc(N)c2cc1OC (stereo not drawn) [Doxazosin] | 0.717 | 0.665 | 0.834 | 0.848
